# Experimental data taken from PubChem BioAssay (NCATS).
# Inconclusive results, whose numbers are uncertain, are shown with a selection of clear calls. For some of these results: No potency is given beside an inconclusive call; the fits are too rough. Active and inactive are the calls of the source. Unless noted, calls come from the whole dose curve; as a rule, active = well fitted curve in the direction sought with a large enough effect; inconclusive = small, poorly fitted or top-dose-only effect, or another doubt; inactive = no such curve, though single readings can be large; an effect the other way counts as inactive or inconclusive.
# Legend:
# [1] = target: Fructose-bisphosphate aldolase (Giardia intestinalis (strain ATCC 50803 / WB clone C6)) (UniProt A8B2U2); assay: qHTS Assay for Inhibitors of Fructose-1,6-bisphosphate Aldolase from Giardia Lamblia: Primary screen confirmation (AID 2787); note: potency is the fitted concentration of half-maximal effect; nearly all actives have a fitted effect of over 45% in size
# Sequence of UniProt A8B2U2 (A8B2U2 whole entry, looked up): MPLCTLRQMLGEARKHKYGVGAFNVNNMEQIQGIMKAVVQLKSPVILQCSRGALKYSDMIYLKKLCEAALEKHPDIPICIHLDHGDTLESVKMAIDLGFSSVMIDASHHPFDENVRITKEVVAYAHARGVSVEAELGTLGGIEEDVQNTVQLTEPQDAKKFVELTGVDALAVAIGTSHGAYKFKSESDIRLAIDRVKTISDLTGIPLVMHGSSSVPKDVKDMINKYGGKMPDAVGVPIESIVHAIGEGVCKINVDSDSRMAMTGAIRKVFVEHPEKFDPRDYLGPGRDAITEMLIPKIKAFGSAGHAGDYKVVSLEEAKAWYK
# In short: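 Confirmation of primary hits by qHTS up to 57.5 uM final compound. Enzyme at 40 nM with 30 uM ZnCl2, 10 min RT pre-incubation, then substrate/coupling/resorufin-forming detection mix for 20 min before fluorescence read at 525/598 nm.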
# [2] = target: Fructose-bisphosphate aldolase A (Oryctolagus cuniculus) (UniProt P00883); assay: qHTS Assay for Inhibitors of Fructose-1,6-bisphosphate Aldolase from Giardia Lamblia: Rabbit FBPA Selectivity (AID 2794); note: potency is the fitted concentration of half-maximal effect; nearly all actives have a fitted effect of over 60% in size
# Sequence of UniProt P00883 (P00883 whole entry, looked up): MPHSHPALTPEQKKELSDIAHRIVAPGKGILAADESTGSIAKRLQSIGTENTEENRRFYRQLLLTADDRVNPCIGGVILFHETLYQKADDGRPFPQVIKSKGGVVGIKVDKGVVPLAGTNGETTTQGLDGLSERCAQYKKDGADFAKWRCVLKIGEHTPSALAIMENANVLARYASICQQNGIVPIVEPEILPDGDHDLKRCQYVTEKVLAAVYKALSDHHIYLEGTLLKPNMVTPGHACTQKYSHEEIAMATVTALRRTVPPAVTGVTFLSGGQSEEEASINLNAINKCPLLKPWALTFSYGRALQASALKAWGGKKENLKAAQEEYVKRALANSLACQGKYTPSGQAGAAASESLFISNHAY
# In short: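 Glyceraldehyde-3-phosphate-coupled detection measures rabbit Class I aldolase turnover via AmpLite Red fluorescence. Compounds (final up to 57.5 uM) preincubated 10 min; signal read 20 min post-substrate at RT.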
# [3] = qHTS for Inhibitors of WRN Helicase: Thiazole Orange DNA Binding Counterscreen (AID 720499);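 note: drop in dye fluorescence marks compound binding to DNA; potency is the fitted concentration of half-maximal effect; nearly all actives have a fitted effect of over 60% in size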
# In short: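 Thiazole orange displacement counterscreen: compounds added to 50 nM unlabeled DNA with 100 nM ThO. Fluorescence (ex 480, em 530 nm) read after 15 min at room temperature; activity flags nonspecific DNA binding.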
# [4] = target: Rap guanine nucleotide exchange factor 3 (Homo sapiens) (UniProt O95398); assay: Confirmatory qHTS for antagonist of cAMP-regulated guanine nucleotide exchange factor 3 (EPAC1) (AID 1645880); conditions: EPAC1 Rap1B-BODIPY-GDP exchange, fluorescence; activity, negative = inhibition: at 115 µM (top of the series); note: potency is the fitted concentration of half-maximal effect; nearly all actives have a fitted effect of over 55% in size
# Sequence of UniProt O95398 (O95398 whole entry, looked up): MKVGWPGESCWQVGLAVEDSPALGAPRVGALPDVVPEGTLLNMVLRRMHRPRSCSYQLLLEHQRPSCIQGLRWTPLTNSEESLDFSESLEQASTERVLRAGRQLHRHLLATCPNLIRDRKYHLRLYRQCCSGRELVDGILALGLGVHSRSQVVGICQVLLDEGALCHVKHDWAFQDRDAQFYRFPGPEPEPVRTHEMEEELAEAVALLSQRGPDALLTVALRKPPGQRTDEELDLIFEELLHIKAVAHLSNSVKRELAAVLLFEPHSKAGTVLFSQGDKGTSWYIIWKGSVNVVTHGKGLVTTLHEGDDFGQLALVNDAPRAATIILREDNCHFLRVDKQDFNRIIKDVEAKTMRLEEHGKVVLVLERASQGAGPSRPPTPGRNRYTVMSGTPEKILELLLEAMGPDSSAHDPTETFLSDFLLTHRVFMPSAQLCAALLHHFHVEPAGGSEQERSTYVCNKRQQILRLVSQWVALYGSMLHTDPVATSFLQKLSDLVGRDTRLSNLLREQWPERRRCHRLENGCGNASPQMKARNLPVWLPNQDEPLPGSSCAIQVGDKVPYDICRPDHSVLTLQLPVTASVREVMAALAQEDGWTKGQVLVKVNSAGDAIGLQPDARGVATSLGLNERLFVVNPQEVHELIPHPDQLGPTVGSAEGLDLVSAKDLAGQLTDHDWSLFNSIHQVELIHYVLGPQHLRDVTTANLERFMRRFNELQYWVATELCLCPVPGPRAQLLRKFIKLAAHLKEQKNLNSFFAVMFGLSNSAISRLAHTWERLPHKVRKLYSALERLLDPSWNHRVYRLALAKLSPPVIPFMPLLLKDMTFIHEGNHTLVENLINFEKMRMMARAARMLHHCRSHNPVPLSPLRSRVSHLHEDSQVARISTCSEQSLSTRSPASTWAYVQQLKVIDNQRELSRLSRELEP
# In short: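 Nucleotide exchange uses 100 nM EPAC1, 250 nM RAP1B-BODIPY-GDP and 50 uM GDP, with compounds in a concentration-titration series. After 5 min at room temperature, fluorescence (480 nm ex/540 nm em) is read every 5 min for 30 min. Data are normalized to control ATA and DMSO.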
# [5] = target: Rap guanine nucleotide exchange factor 3 (Homo sapiens) (UniProt O95398); assay: Counterscreen qHTS for agonist of cAMP-regulated guanine nucleotide exchange factor 3 (EPAC1) (AID 1645889); conditions: EPAC1 Rap1B-BODIPY-GDP exchange, fluorescence; activation: at 154 µM (top of the series) unless noted; note: nearly all actives have a fitted effect of over 40% in size; note: potency is the fitted concentration of half-maximal effect; for activation: % of control where 0% means no effect
# In short: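 Rap1B–BODIPY-GDP (250 nM) with 50 uM GDP; compounds pin-transferred to 9.74 nM–152 uM final (activator) or from 7.32 nM upwards (inhibitor). Fluorescence Ex/Em 480/540 nm read at 5 and 30 min, then after adding cAMP or buffer, at room temperature.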
# [6] = NFAT Signaling Pathway (AID 444; active = well fitted curve in either direction with a large enough effect, not every such curve was filed as active; inconclusive = small, poorly fitted or top-dose-only effect, or another doubt;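 note: carbachol stimulus at about its EC50 of 1 µM final; % is set by controls: 0 for no effect and ±100 for the full control effect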); conditions: Jurkat NFAT-bla M1, carbachol, beta-lactamase ratio, 5 h; at 7.69 µM (top of the series) unless noted
# In short: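 Jurkat cells with NFAT-driven β-lactamase reporter and co-expressed M1 receptor, stimulated with carbachol (final 1 uM, ~EC50), compound titration, 5 h at 37 °C. CCF4 loaded 1 h at RT; 460/530 nm ratio gave %activity and AC50.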
# [7] = Stat Signaling Pathway (AID 446; active = well fitted curve in either direction with a large enough effect, not every such curve was filed as active; inconclusive = small, poorly fitted or top-dose-only effect, or another doubt;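 note: ME-180 cervical cancer cells given 40 pM IL-6 alongside compound; SIE-controlled beta-lactamase reporter measured as 460/530 nm FRET emission ratio; top concentration of the series differs between compounds; % is set by controls: 0 for no effect and ±100 for the full control effect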); conditions: ME-180 SIE beta-lactamase reporter, IL-6 stimulated, 5 h; at 7.69 µM (top of the series) unless noted
# In short: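 Reporter line: ME-180 cervical carcinoma, SIE-beta-lactamase. Treatment: compound with 40 pM IL-6, 5 hrs, 37 C, in low-serum OPTI-MEM with 10 mM HEPES pH 7.3. Detection: 460/530 nm fluorescence.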
# [8] = target: DNA repair nuclease/redox regulator APEX1 (Homo sapiens) (UniProt P27695); assay: Confirmation qHTS Assay for Inhibitors of the Human Apurinic/apyrimidinic Endonuclease 1 (APE1) (AID 2572); note: potency is the fitted concentration of half-maximal effect; nearly all actives have a fitted effect of over 30% in size
# Sequence of UniProt P27695 (P27695 whole entry, looked up): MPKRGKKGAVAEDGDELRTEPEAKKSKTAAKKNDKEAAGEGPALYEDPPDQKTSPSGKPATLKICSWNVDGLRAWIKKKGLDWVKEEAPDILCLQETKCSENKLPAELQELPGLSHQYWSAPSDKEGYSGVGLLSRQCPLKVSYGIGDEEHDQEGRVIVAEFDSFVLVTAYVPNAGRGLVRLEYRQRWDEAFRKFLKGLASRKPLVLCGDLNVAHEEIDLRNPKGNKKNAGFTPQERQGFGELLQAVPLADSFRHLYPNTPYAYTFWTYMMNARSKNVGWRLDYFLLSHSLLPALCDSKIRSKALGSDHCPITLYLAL
# In short: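 Enzyme preincubated 15 min at room temperature with compound; reaction started with 50 nM final double-stranded THF abasic-site substrate (5'-TAMRA, 3'-BHQ-2). Fluorescence read kinetically (525/598 nm); third-minus-first read difference gives reaction progress.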
# [9] = target: DNA repair nuclease/redox regulator APEX1 (Homo sapiens) (UniProt P27695); assay: qHTS FP-Based Assay for Inhibitors of the Human Apurinic/apyrimidinic Endonuclease 1 (APE1) (AID 2573); note: potency is the fitted concentration of half-maximal effect
# [10] = target: Tyrosyl-DNA phosphodiesterase 1 (Homo sapiens) (UniProt Q9NUW8); assay: Confirmation Assay for Inhibitors of Tyrosyl-DNA Phosphodiesterase (TDP1) (AID 489007); conditions: recombinant human TDP1 enzymatic activity, dose-response; note: potency is the fitted concentration of half-maximal effect; nearly all actives have a fitted effect of over 40% in size
# Sequence of UniProt Q9NUW8 (Q9NUW8 whole entry, looked up): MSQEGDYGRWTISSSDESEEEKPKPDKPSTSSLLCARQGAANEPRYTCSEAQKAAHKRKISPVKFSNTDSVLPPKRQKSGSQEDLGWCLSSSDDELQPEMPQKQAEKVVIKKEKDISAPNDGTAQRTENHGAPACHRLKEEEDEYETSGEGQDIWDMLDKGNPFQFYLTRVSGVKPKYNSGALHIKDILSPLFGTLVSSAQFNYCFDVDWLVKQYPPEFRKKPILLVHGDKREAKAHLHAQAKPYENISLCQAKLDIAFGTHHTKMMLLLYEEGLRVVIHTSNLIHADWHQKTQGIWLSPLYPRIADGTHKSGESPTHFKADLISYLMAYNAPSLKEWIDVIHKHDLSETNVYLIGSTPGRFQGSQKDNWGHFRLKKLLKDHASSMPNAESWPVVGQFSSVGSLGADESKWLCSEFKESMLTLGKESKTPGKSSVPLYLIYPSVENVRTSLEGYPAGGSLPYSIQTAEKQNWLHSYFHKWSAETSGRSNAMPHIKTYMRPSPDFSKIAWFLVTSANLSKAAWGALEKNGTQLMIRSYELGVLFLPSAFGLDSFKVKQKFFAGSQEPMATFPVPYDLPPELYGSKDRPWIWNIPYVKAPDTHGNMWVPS
# In short: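 Tdp1 1 nM + cpd, 15 min RT; add biotin/phosphotyrosine-FITC oligo 15 nM, 5 min RT; add AS donor/acceptor beads 10 ug/ml, 10 min RT; read AlphaScreen. No-enzyme wells = max signal.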
# [11] = target: DNA polymerase eta (Homo sapiens) (UniProt Q9Y253); assay: qHTS for Inhibitors of Polymerase Eta: Confirmatory Assay for Cherry-picked Compounds (AID 720502); conditions: Pol eta primer extension, TAMRA/BHQ fluorescence, 10 min; note: potency is the fitted concentration of half-maximal effect
# Sequence of UniProt Q9Y253 (Q9Y253 whole entry, looked up): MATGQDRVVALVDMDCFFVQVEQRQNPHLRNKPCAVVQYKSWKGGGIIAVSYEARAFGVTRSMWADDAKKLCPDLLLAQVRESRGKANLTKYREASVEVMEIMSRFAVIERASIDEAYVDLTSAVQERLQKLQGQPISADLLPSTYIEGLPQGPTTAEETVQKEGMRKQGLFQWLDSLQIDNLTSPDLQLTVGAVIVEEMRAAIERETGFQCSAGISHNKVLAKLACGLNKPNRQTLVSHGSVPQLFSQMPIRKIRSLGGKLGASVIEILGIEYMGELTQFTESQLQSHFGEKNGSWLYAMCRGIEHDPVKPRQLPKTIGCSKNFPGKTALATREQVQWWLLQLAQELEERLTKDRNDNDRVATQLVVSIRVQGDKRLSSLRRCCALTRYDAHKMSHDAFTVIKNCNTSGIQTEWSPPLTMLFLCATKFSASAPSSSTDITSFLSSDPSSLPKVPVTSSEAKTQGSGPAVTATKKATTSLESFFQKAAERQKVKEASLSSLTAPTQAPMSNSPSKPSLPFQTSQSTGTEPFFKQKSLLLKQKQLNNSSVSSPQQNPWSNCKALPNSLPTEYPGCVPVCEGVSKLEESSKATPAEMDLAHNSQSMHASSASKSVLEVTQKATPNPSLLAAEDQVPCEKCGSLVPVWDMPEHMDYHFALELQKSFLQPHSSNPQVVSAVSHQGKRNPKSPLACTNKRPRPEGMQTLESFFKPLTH
# In short: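 Human Pol eta at 10 nM was preincubated with compound for 15 min at room temperature. Reaction was started with TAMRA/BHQ-2-labelled primer-template substrate (50 nM final), with fluorescence read at 0 and 10 min (ex 525, em 598 nm).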
# [12] = qHTS Assay for Inhibitors of Fructose-1,6-bisphosphate Aldolase from Giardia Lamblia: Giardia lamblia growth inhibition (AID 2785); conditions: Giardia lamblia trophozoite growth inhibition; activity change, negative = inhibition: at 38.3 µM (top of the series) unless noted; note: potency is the fitted concentration of half-maximal effect; nearly all actives have a fitted effect of over 70% in size
# In short: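 G. lamblia WB trophozoites (100 cells/well) were grown with compound at 37C for 48 h in modified TYI-S-33 medium, pH 7.0. Growth was measured by ATPlite luminescence after 20 min at room temperature.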
# [13] = qHTS for Inhibitors of the vitamin D receptor (VDR): Hit Validation using a Texas Red Assay (AID 602201); note: potency is the fitted concentration of half-maximal effect
# In short: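 Fluorescence polarization with 1.5 uM VDR-LBD, LG19078 and 7 nM Texas Red (final). After 2 hours at ambient temperature, read at Ex 595 nm/Em 615 nm.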
# [14] = qHTS for Inhibitors of the vitamin D receptor (VDR): Hit Validation using a Cytotoxicity Assay (AID 602204);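 note: cells co-treated with VDR agonist LG190178 at 300 nM; potency is the fitted concentration of half-maximal effect; nearly all actives have a fitted effect of over 75% in size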
# In short: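 Each well held 20,000 cells, incubated 4 h before compounds went in. An 18 h treatment preceded addition of ATP-sensing luminescent reagent, with reading after 30 min; cycloheximide and DMSO controlled the window.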
# [15] = target: Tumor susceptibility gene 101 protein (Homo sapiens) (UniProt Q99816); assay: qHTS Assay for Iinhibitors of HIV-1 Budding by Blocking the Interaction of PTAP/TSG101: Hit Validation (AID 651600); note: potency is the fitted concentration of half-maximal effect; nearly all actives have a fitted effect of over 70% in size
# Sequence of UniProt Q99816 (Q99816 whole entry, looked up, the tested form may be a part): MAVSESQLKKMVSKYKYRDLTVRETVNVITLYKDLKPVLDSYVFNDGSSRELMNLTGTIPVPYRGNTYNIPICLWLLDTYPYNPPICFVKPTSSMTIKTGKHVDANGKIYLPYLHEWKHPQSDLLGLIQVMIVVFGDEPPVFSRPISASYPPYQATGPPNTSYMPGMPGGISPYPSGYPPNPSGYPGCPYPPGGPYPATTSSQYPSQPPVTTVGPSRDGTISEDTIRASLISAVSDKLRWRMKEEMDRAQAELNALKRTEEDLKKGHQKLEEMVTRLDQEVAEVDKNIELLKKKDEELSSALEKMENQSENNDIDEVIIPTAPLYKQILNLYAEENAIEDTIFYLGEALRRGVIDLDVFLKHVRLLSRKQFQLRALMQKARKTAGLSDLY
# In short: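 Fluorescence polarization binding assay: Tsg101 binding domain (10 uM) mixed with compounds and FITC-labeled PTAP peptide (50 nM) in HEPES pH 7.5, 0.15 M NaCl, 0.01% Tween 20, EDTA, TCEP; 20 min at r.t.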
# Tags give direction and shape of the fitted curve.
smiles,measurement,setting,value
Cc1c(Br)c(=O)oc2c(Br)c(O)c(O)cc12,Potency,[1],"inconclusive [inhibitor, partial curve]"
same,Potency,[2],"inconclusive [inhibitor, partial curve]"
same,Potency,[3],"inconclusive [inhibitor, partial curve]"
same,Potency,[4],active: 3.16 µM
same,Potency,[5],"inconclusive [activator, partial curve, poor fit]"
CC(C)=CCC1=C(OCC(=O)O)C(=O)c2ccccc2C1=O,"activity change, negative = inhibition",[6],inconclusive: -43.4% [inhibitor]
same,"activity, negative = inhibition",[7],inactive: -5.94%
same,Potency,[4],active: 84.9 µM
same,Potency,[5],"inconclusive [activator, full curve, poor fit]"
COc1ccc(C(=O)CSc2nnc(-c3ccco3)c(-c3ccco3)n2)cc1,Potency,[8],"inconclusive [inhibitor, partial curve]"
same,Potency,[9],"inconclusive [inhibitor, single point]"
same,Potency,[4],"inconclusive [inhibitor, partial curve]"
same,activation,[5],inconclusive: 32.4% [activator]
COc1ccc(/C=C2\C(=O)NC(=S)N2C(=O)c2ccc(F)cc2)cc1,Potency,[10],"inconclusive [inhibitor, full curve]"
same,Potency,[11],"inconclusive [inhibitor, single point]"
same,Potency,[4],"inconclusive [inhibitor, partial curve]"
same,activation,[5],inconclusive: 31.6% [activator]
O=[N+]([O-])c1ccc(Sc2cccc[n+]2[O-])c2nonc12,Potency,[12],active: 2 µM
same,Potency,[1],active: 6.31 µM
same,Potency,[2],active: 15.8 µM
same,Potency,[13],"inconclusive [inhibitor, full curve]"
same,Potency,[14],"inconclusive [cytotoxic, full curve, poor fit]"
same,Potency,[15],active: 18.3 µM
same,Potency,[4],active: 31.6 µM
same,activation,[5],inactive: 9.42% [at 30.8 µM]
CCOC(=O)C1CCCN(c2nc3ccccc3nc2C(C#N)C(=O)OC(C)C)C1 (stereo unspecified),"activity change, negative = inhibition",[6],inactive: -22.1% [at 17.2 µM]
same,Potency,[4],"inconclusive [inhibitor, partial curve, poor fit]"
same,activation,[5],inactive: 36.1% [at 30.8 µM]
Cc1cc(SCC(=O)c2ccc(O)c(O)c2)nc2ccccc12,Potency,[8],"inconclusive [inhibitor, partial curve, poor fit]"
same,Potency,[4],active: 14.1 µM
same,Potency,[5],"inconclusive [activator, partial curve, poor fit]"
